# Source: PubChem BioAssay AID485344 (National Center for Advancing Translational Sciences (NCATS), 2010)
# Hit rate of the full screen: of about 340,000 compounds, about 6,900 (2%) were called active. No stated cut-off is given here; in the data, active means inhibition above about 30%; inactive means below that, where a call was filed. Only a part is listed here, and it is no random draw. Where no call is shown, the source filed none.
# Target: D(2) dopamine receptor (Homo sapiens) (UniProt P14416)
# Assay: HTS Assay for Allosteric Antagonists of the Human D2 Dopamine Receptor: Primary Screen for Antagonists; further: 0% is about no effect
# Settings: HEK293 TREx D2 cells, calcium flux, dopamine EC80; at 10 µM; stronger effect = higher value
# How it was run: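 Overnight-induced (tetracycline, 30 C) HEK293 T-REx cells carrying force-coupled D2 receive a no-wash calcium dye, then compound, then EC80 dopamine at 180 s; signals are read kinetically throughout.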
# UniProt P14416, sequence (P14416 whole entry, looked up): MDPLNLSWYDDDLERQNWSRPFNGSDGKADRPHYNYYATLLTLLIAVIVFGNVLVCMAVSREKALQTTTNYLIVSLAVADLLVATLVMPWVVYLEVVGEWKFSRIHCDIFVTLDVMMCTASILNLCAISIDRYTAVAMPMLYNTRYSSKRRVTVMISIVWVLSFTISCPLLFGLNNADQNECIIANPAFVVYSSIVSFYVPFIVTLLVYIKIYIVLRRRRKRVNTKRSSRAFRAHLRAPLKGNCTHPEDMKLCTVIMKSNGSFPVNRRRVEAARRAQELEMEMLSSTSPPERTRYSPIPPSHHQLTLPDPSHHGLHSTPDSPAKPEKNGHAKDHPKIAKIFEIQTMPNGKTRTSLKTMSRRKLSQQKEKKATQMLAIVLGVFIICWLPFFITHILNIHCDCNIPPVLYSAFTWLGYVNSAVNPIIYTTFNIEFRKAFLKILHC
row,SMILES,inhibition
1,Fc1ccccc1OCCCN1CCOCC1,active: 31.1%
2,COc1ccc(-c2cccc(NS(=O)(=O)c3cc(C)c(Cl)cc3C)c2)nn1,-5.97%
3,Cn1nc(C(F)(F)F)c2cc(C(=O)Nc3ccc(Cl)cc3)sc21,active: 64.4%
4,CCN(CCCNC(=O)c1nn(-c2ccc(OC)cc2)c(=O)c2c1c1ccccc1n2C)c1cccc(C)c1,2.88%
5,Cc1cccc(Cn2c(C)c(C)c3cc(C(=O)NCc4ccc(C)o4)ccc32)c1,12.3%
6,Cc1cc(NC(=O)CN(C)S(=O)(=O)c2ccc3c(c2)CCC(=O)N3)ccc1Br,24.1%
7,CCOc1ccc(NC(=O)CN2C(=O)C(c3ccccc3)=NC23CCCCCC3)cc1,-2%
8,Cc1ccc(-c2nn(-c3ccccc3)cc2C(=O)NCCCN2CCOCC2)cc1,active: 31%
9,CCOc1ccc(CCNC(=O)c2cc3c(-c4cccc(OC)c4)nn(C)c3s2)cc1OCC,-8.14%
10,CCC(C(=O)NCCc1ccc(Cl)cc1)n1nc(C)c2c(C)n(-c3ccccc3)nc2c1=O (configuration not stated),-7.35%
11,Cc1cccc(C(CC(=O)NCC2(c3ccccc3)CCCC2)c2ccccc2)c1O (configuration not stated),6.45%
12,CCN(C(=O)NCc1noc2ccccc12)c1cc(C)ccc1C,3.58%
13,CCCCCOc1ccc(C(=O)N(Cc2ccccc2)C2CCS(=O)(=O)C2)cc1 (configuration not stated),-2.08%
14,CCOC(=O)c1nc(Nc2cccc(C)c2)c2ccccc2n1,7.72%
15,Cc1ccc2nc(/C(C#N)=C/c3ccc(-c4cccc(Cl)c4)o3)[nH]c2c1,-1.66%
16,CCOc1ccc(CNC(=O)CCn2cccn2)cc1OC,21.8%
17,Cc1cccc(C(=O)Nc2ccc(N3CCC(CCN4CCOCC4)CC3)c(C(=O)O)c2)c1,-18.1%
18,O=C(Nc1ccc(S(=O)(=O)N2CCC(c3nc4ccccc4s3)CC2)cc1)c1ccccc1F,27.1%
19,Cc1ccc(S(=O)(=O)CC(=O)c2ccc(C)c([N+](=O)[O-])c2)cc1,active: 78.8%
20,CN1CCN(NC(=O)CSc2ccc(Cl)cc2Cl)CC1,active: 45.8%
21,Cn1cc(CNCCCn2ncc3ccccc32)c(-c2ccccc2F)n1,active: 37.2%
22,COc1cccc(NC(=O)Cn2c(=O)n(CCCC(=O)NCc3ccc4c(c3)OCO4)c(=O)c3ccccc32)c1,22%
23,Cc1ccc(CNC(=O)c2c(-c3ccccc3F)noc2C)o1,9.06%
24,COC(=O)c1c(NC(=O)c2ccc(S(=O)(=O)N3CCCCC3C)cc2)sc2c1CCN(C(C)C)C2 (configuration not stated),-14.5%

row,SMILES,inhibition
1,CCOC(=O)c1ccccc1NC(=O)N(Cc1ccc(C)cc1)Cc1cccn1-c1nnc(N2CCCC2=O)s1,-6.53%
2,COc1ccc(-c2noc(CSc3nnc(-c4ccncc4)n3-c3ccccc3)n2)cc1,-0.453%
3,Cc1ccccc1-c1noc(CSc2nnc(Cc3ccccc3)n2-c2ccc(F)cc2)n1,-4.71%
4,CCC(C)n1c(=N)c(S(=O)(=O)c2ccc(C)cc2)cc2c(=O)n3cc(C)ccc3nc21 (configuration not stated),-13.9%
5,COCCCNC(=O)c1ccc(NC(=O)N2CCCCc3ccccc32)cc1,-1.29%
6,COc1ccc(-c2nc(CCNC(=O)c3cc(OC)c(OC)c(OC)c3)cs2)cc1,-6.22%
7,CCCN1CCN(CC2=C(C(=O)OCC)C(c3ccc(Cl)cc3)NC(=O)N2)CC1 (configuration not stated),3.04%
8,COc1ccc(Cl)cc1NC(=O)CCCn1c(=O)c2cccn2c2cccnc21,-8.01%
9,COc1ccc(CNC(=O)Cc2c(C)c3c(cc(C)c4c(C)coc43)oc2=O)cc1,-5.78%
10,COc1ccc(-c2c(C)nn3c(N4CCC(C(=O)NCCC(C)C)CC4)cc(C)nc23)cc1OC,-4.62%
11,Cc1ccc(-n2ncc3c(NNC(=O)c4ccccc4C)ncnc32)cc1,-9.54%
12,CC(C)c1ccc(C2c3c(-c4ccccc4O)n[nH]c3C(=O)N2CCc2ccccc2)cc1 (configuration not stated),2.82%
13,CC(C)CCn1c(SCc2ccc(F)cc2Cl)nc2ccsc2c1=O,-3.81%
14,Cc1ccc(Cn2c(=O)c3c(nc4n3CCN4c3cc(C)cc(C)c3)n(C)c2=O)cc1,3.92%
15,CCN(CC)CCn1c(=N)n(CC(O)COc2ccccc2C)c2ccccc21 (configuration not stated),1.78%
16,COc1ccccc1/C=C/CN1CCC(Oc2ccc(C(=O)N3CCCC3)cc2)CC1,active: 47.1%
17,CCCCOc1ccc(S(=O)(=O)Nc2cccc(-c3ccc(N4CCOCC4)nn3)c2)cc1,9.44%
18,COc1ccccc1-c1c(C)nn2c(N3CCN(c4ccc(Cl)cc4)CC3)cc(C)nc12,-1.56%
19,CCOC(=O)c1ccc(Nc2nc(C)cc(C)n2)cc1,0.257%
20,CC(Sc1nc(-c2ccccc2)c(C#N)c(=O)[nH]1)C(=O)Nc1ccc(F)cc1 (configuration not stated),-25.1%
21,COc1ccc(N(CC(=O)N2CCN(c3cc(C)ccc3C)CC2)S(=O)(=O)c2c(C)noc2C)cc1,-1.98%
22,CCCC[n+]1ccn(-c2nc3c([N+](=O)[O-])cccc3n2C)c1,active: 34.1%
23,Cc1c(C(=O)NCCN(C)C)oc2c1-c1nn(Cc3ccccc3Cl)cc1CC2,-1.61%
